We go through 23 molecules from ChEMBL document CHEMBL4888484, “Replenishing the malaria drug discovery pipeline: Screening and hit evaluation of the MMV Hit Generation Library 1 (HGL1) against asexual blood stage Plasmodium falciparum ,using a nano luciferase reporter read-out” (2022).

The whole screen tested about 150,000 compounds, of which about 540 (0.36%) showed an effect of 50% or more. The list shows a part of the results.

In the assay the test system is Plasmodium falciparum. Briefly: Primary screen in NF54 nanoGlo assay, in single point, at 2uM, 72h; a lower Z score goes with more inhibition. The note with it: timepoint 72 hour. Format: functional, Erythrocyte.
By % Inhibition is commonly meant the drop in the measured response relative to a control, in per cent. In the case of `Cc1ccc2nc(N3CCC[C@H](C(=O)NCc4cccnc4)C3)[nH]c2c1`, the “% Inhibition” value is given as -2% and the Z score stood at 0.28.
For `Cc1c(C(=O)Nc2ccc(Cl)cc2F)sc2ncnc(N3CCCC3)c12` the same measures were -12% and 1.13.
For `C[C@H]1CS(=O)(=O)N(c2ccc(C(=O)N(C)c3ccccc3)c(Cl)c2)C1=O` the same measures were -4% and 0.52.
`O=C(c1cccc(N2CCCC2=O)c1)N1C[C@@H](CN2CCOCC2)[C@@H](CO)C1`: the “% Inhibition” value is 1% and the Z score was -0.12.
For `CCOC(=O)c1ccc(NC(=O)c2nc(-c3cnccn3)no2)cc1` the same measures were -7% and 0.95.
Turning to `CO[C@H]1CCCN(c2ccnc(C(C)C)n2)C1`, the “% Inhibition” value was -4% and the Z score was found to be 0.8.
As for `O=C(Nc1ccc(S(=O)(=O)N2CCCC2)cc1)c1sc2cccc(F)c2c1Cl`, the “% Inhibition” value was -1% and the Z score is given as 0.16.
As for `CCc1nc(-c2ccc(C#N)cc2)cc(-c2c(C)noc2C)n1`, the “% Inhibition” value is reported as -11% and the Z score was found to be 1.46.
In the case of `Cc1ccc(-c2c(C)sc(NC(=O)c3ccncc3)c2C(N)=O)cc1C`, the “% Inhibition” value is listed as -15% and the Z score came out at 1.36.
On the same counts, the results for `CCOC(=O)[C@H]1CCCN(C(=O)c2c(Cc3ccccc3C)n(Cc3ccccn3)c(C)cc2=O)C1` are -8% and 1.53.
As to `CN1CC2(CCN(c3cnc4ccccc4n3)CC2)OCC1=O`, the “% Inhibition” value was -5% and the Z score worked out at 0.88.
Consider `COc1cccc(CCc2ccccc2C(=O)N2CC[C@@H]3CNC[C@@H]32)c1`, for which the “% Inhibition” value worked out at 4% and the Z score is -0.81.
Consider `CCC1Oc2ccc(NC(=O)C(CC)c3ccccc3)cc2CN(Cc2ccc3c(c2)OCO3)C1=O` (stereo unspecified), for which the “% Inhibition” value was -5% and the Z score was 1.
For `CCS(=O)(=O)N1CCC[C@H](C(=O)Nc2cc(C)on2)C1` the same measures were 13% and -1.84.
Turning to `O=C(c1cc(Cl)sc1Cl)N1CCn2nccc2C1`, the “% Inhibition” value is on record as -8% and the Z score was found to be 1.49.
`c1cc2c(cc1CCN1CCOC3(CCCC3)C1)OCCO2`: the “% Inhibition” value was found to be 3% and the Z score is -0.41.
On to `Nc1cccc(-n2ccc(-c3cnccn3)n2)n1`, for which the “% Inhibition” value is listed as -5% and the Z score is on record as 0.58.
Regarding `CC(=O)Nc1cccc(-c2ncc(C)c(N)n2)c1`, the “% Inhibition” value is recorded as 1% and the Z score is on record as -0.12.
On the same counts, the results for `COCCC(=O)Nc1ccccc1N(C)C1CCCC1` are -2% and 0.46.
`COc1cccc(-c2ccc3c(c2)O[C@H]2CN(C(=O)CC(C)(C)C)C[C@H]2N(C)C3=O)c1`: the “% Inhibition” value came out at 4% and the Z score is on record as -0.58.
For `Cc1ccc(C(=O)N2CCCC3CCCC32)c(=O)[nH]1` (stereo unspecified) the same measures were -10% and 1.06.
With `Oc1ccc(NC2Cc3ccccc3C2)cc1`, the “% Inhibition” value is recorded as 2% and the Z score is given as -0.36.
For `O=C(C1CCOCC1)N1CC[C@]23C(=O)N(Cc4cn(nn4)CCCOc4cccc(c4)[C@H]12)c1ccccc13`, the “% Inhibition” value is recorded as 4% and the Z score is -0.57.
